Positions count from the first letter of the chain named. This is one part of the list.
T1: RBFOX1 RRM RbFoxmut (Fox-RRM*) (Homo sapiens, UniProt Q9NWB1 109-208, R118D;E147R;N151S;E152T)
T1 sequence: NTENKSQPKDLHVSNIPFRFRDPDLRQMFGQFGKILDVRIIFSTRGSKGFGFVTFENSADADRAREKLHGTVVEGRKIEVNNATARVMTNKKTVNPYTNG

B1: UUAAUUU (DNA:RNA)
RNA: GGGAGACCGGAAUUCAGAUUGUCCUUAAUUUUUAAAUCCCGUCGUAGCCACCA
DNA 1: CAATCTGAATTCCGGTCTCCC
DNA 2: TGGTGGCTACGACGGGATT
B2: GAUCUGU (DNA:RNA)
RNA: B1 RNA with U25G, U26A, A27U, A28C, U30G
DNA 1: CAATCTGAATTCCGGTCTCCC
DNA 2: TGGTGGCTACGACGGGATT
B3: GCGCAUU (DNA:RNA)
RNA: B1 RNA with U25G, U26C, A27G, A28C, U29A
DNA 1: CAATCTGAATTCCGGTCTCCC
DNA 2: TGGTGGCTACGACGGGATT
B4: GUAUUCU (DNA:RNA)
RNA: B1 RNA with U25G, A28U, U30C
DNA 1: CAATCTGAATTCCGGTCTCCC
DNA 2: TGGTGGCTACGACGGGATT
B5: GCAAGGA (DNA:RNA)
RNA: B1 RNA with U25G, U26C, U29G, U30G, U31A
DNA 1: CAATCTGAATTCCGGTCTCCC
DNA 2: TGGTGGCTACGACGGGATT
B6: UUGUGGG (DNA:RNA)
RNA: B1 RNA with A27G, A28U, U29G, U30G, U31G
DNA 1: CAATCTGAATTCCGGTCTCCC
DNA 2: TGGTGGCTACGACGGGATT
B7: CGGGCAG (DNA:RNA)
RNA: GGGAGACCGGAAUUCAGAUUGUCCCGGGCAGUUAAAUCCCGUCGUAGCCACCA
DNA 1: CAATCTGAATTCCGGTCTCCC
DNA 2: TGGTGGCTACGACGGGATT
B8: CGGGAGC (DNA:RNA)
RNA: B7 RNA with C29A, A30G, G31C
DNA 1: CAATCTGAATTCCGGTCTCCC
DNA 2: TGGTGGCTACGACGGGATT
B9: GGUAAGC (DNA:RNA)
RNA: B7 RNA with C25G, G27U, G28A, C29A, A30G, G31C
DNA 1: CAATCTGAATTCCGGTCTCCC
DNA 2: TGGTGGCTACGACGGGATT
B10: CAGGCGA (DNA:RNA)
RNA: B7 RNA with G26A, A30G, G31A
DNA 1: CAATCTGAATTCCGGTCTCCC
DNA 2: TGGTGGCTACGACGGGATT
B11: GAAAUUC (DNA:RNA)
RNA: B1 RNA with U25G, U26A, U31C
DNA 1: CAATCTGAATTCCGGTCTCCC
DNA 2: TGGTGGCTACGACGGGATT
B12: UGAGAUC (DNA:RNA)
RNA: B1 RNA with U26G, A28G, U29A, U31C
DNA 1: CAATCTGAATTCCGGTCTCCC
DNA 2: TGGTGGCTACGACGGGATT
B13: CUCGGAG (DNA:RNA)
RNA: B7 RNA with G26U, G27C, C29G
DNA 1: CAATCTGAATTCCGGTCTCCC
DNA 2: TGGTGGCTACGACGGGATT
B14: GCGCCUU (DNA:RNA)
RNA: B7 RNA with C25G, G26C, G28C, A30U, G31U
DNA 1: CAATCTGAATTCCGGTCTCCC
DNA 2: TGGTGGCTACGACGGGATT
B15: UAAAUUC (DNA:RNA)
RNA: B1 RNA with U26A, U31C
DNA 1: CAATCTGAATTCCGGTCTCCC
DNA 2: TGGTGGCTACGACGGGATT
B16: CAUGUCG (DNA:RNA)
RNA: B7 RNA with G26A, G27U, C29U, A30C
DNA 1: CAATCTGAATTCCGGTCTCCC
DNA 2: TGGTGGCTACGACGGGATT
B17: GGGUACA (DNA:RNA)
RNA: B7 RNA with C25G, G28U, C29A, A30C, G31A
DNA 1: CAATCTGAATTCCGGTCTCCC
DNA 2: TGGTGGCTACGACGGGATT
B18: CACGACA (DNA:RNA)
RNA: B7 RNA with G26A, G27C, C29A, A30C, G31A
DNA 1: CAATCTGAATTCCGGTCTCCC
DNA 2: TGGTGGCTACGACGGGATT
B19: UGUCGGA (DNA:RNA)
RNA: B7 RNA with C25U, G27U, G28C, C29G, A30G, G31A
DNA 1: CAATCTGAATTCCGGTCTCCC
DNA 2: TGGTGGCTACGACGGGATT
B20: AGUCCUC (DNA:RNA)
RNA: B7 RNA with C25A, G27U, G28C, A30U, G31C
DNA 1: CAATCTGAATTCCGGTCTCCC
DNA 2: TGGTGGCTACGACGGGATT
B21: CCGGGGG (DNA:RNA)
RNA: B7 RNA with G26C, C29G, A30G
DNA 1: CAATCTGAATTCCGGTCTCCC
DNA 2: TGGTGGCTACGACGGGATT
B22: AGAAAAA (DNA:RNA)
RNA: B7 RNA with C25A, G27A, G28A, C29A, G31A
DNA 1: CAATCTGAATTCCGGTCTCCC
DNA 2: TGGTGGCTACGACGGGATT
B23: UCACCAG (DNA:RNA)
RNA: B7 RNA with C25U, G26C, G27A, G28C
DNA 1: CAATCTGAATTCCGGTCTCCC
DNA 2: TGGTGGCTACGACGGGATT
B24: AUUGCGC (DNA:RNA)
RNA: B7 RNA with C25A, G26U, G27U, A30G, G31C
DNA 1: CAATCTGAATTCCGGTCTCCC
DNA 2: TGGTGGCTACGACGGGATT
B25: GGAAGAA (DNA:RNA)
RNA: B7 RNA with C25G, G27A, G28A, C29G, G31A
DNA 1: CAATCTGAATTCCGGTCTCCC
DNA 2: TGGTGGCTACGACGGGATT
B26: ACAGAUU (DNA:RNA)
RNA: B1 RNA with U25A, U26C, A28G, U29A
DNA 1: CAATCTGAATTCCGGTCTCCC
DNA 2: TGGTGGCTACGACGGGATT
B27: GAUAUAA (DNA:RNA)
RNA: B1 RNA with U25G, U26A, A27U, U30A, U31A
DNA 1: CAATCTGAATTCCGGTCTCCC
DNA 2: TGGTGGCTACGACGGGATT
B28: GUAUCUG (DNA:RNA)
RNA: B1 RNA with U25G, A28U, U29C, U31G
DNA 1: CAATCTGAATTCCGGTCTCCC
DNA 2: TGGTGGCTACGACGGGATT
B29: CAGACUU (DNA:RNA)
RNA: B7 RNA with G26A, G28A, A30U, G31U
DNA 1: CAATCTGAATTCCGGTCTCCC
DNA 2: TGGTGGCTACGACGGGATT
B30: AUCAUCC (DNA:RNA)
RNA: B1 RNA with U25A, A27C, U30C, U31C
DNA 1: CAATCTGAATTCCGGTCTCCC
DNA 2: TGGTGGCTACGACGGGATT
B31: AGACCAA (DNA:RNA)
RNA: B7 RNA with C25A, G27A, G28C, G31A
DNA 1: CAATCTGAATTCCGGTCTCCC
DNA 2: TGGTGGCTACGACGGGATT

These binders were tested against T1, RBFOX1 RRM RbFoxmut (Fox-RRM*) (assay: EMSA; HiTS-Eq, 1 nM pool, 10 min; buffer printed only for the single-RNA assays: 10 mM Tris pH 7.5, 150 mM NaCl, 3.4 mM EDTA, 0.001% NP-40, 30 C). Settings: tags: His6 N-terminal (pET28a); label: 5' 32P.
Procedure, shortened: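 A pool of RNA with 7 randomized nucleotides, 5′-radiolabelled and with DNA-annealed flanks, was equilibrated at 1 nM for 10 min in 50 µL with purified RbFox RRM, wild type or mutant, across increasing protein concentrations. Free RNA was separated by 8% native PAGE, excised, reverse-transcribed, barcoded by PCR and sequenced. Relative association constants were obtained from read-count changes of each RNA species versus the control reaction and normalised to the cognate motif.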
In the case of B1, the binding signal is reported as 0.0824 KA relative to UGCAUGU. For B2, the binding signal was 0.0827 KA relative to UGCAUGU. For B3, the binding signal was 0.1 KA relative to UGCAUGU. In the case of B4, the binding signal is reported as 0.0952 KA relative to UGCAUGU. B5 was tested, and the binding signal was 0.0471 KA relative to UGCAUGU. In the case of B6, the binding signal is reported as 0.11 KA relative to UGCAUGU. In the case of B7, the binding signal is reported as 0.109 KA relative to UGCAUGU. For B8, the binding signal was 0.11 KA relative to UGCAUGU. With B9 the binding signal was 0.0645 KA relative to UGCAUGU. For B10, the binding signal was 0.0541 KA relative to UGCAUGU. B11 was tested, and the binding signal was 0.0469 KA relative to UGCAUGU. B12 was tested, and the binding signal was 0.179 KA relative to UGCAUGU. For B13, the binding signal was 0.12 KA relative to UGCAUGU. For B14, the binding signal was 0.0675 KA relative to UGCAUGU. B15 was tested, and the binding signal was 0.0551 KA relative to UGCAUGU. B16 was tested, and the binding signal was 0.157 KA relative to UGCAUGU. In the case of B17, the binding signal is reported as 0.105 KA relative to UGCAUGU. With B18 the binding signal was 0.0562 KA relative to UGCAUGU. With B19 the binding signal was 0.0935 KA relative to UGCAUGU. With B20 the binding signal was 0.045 KA relative to UGCAUGU. In the case of B21, the binding signal is reported as 0.0847 KA relative to UGCAUGU. With B22 the binding signal was 0.141 KA relative to UGCAUGU. B23 was tested, and the binding signal was 0.104 KA relative to UGCAUGU. For B24, the binding signal was 0.115 KA relative to UGCAUGU. For B25, the binding signal was 0.06 KA relative to UGCAUGU. B26 was tested, and the binding signal was 0.111 KA relative to UGCAUGU. In the case of B27, the binding signal is reported as 0.0789 KA relative to UGCAUGU. For B28, the binding signal was 0.17 KA relative to UGCAUGU. For B29, the binding signal was 0.0511 KA relative to UGCAUGU. With B30 the binding signal was 0.0557 KA relative to UGCAUGU. B31 was tested, and the binding signal was 0.0887 KA relative to UGCAUGU.
